# Assay results as given in the antibiotic and cytotoxicity screens of Wong et al. (2023).
# Some of the results follow.
# System: HSkMC (human skeletal muscle cells)
# Assay: cytotoxicity call (relative viability < 0.9)
# Details: 10 µM
row,SMILES,cytotoxicity call
1,C[C@@H]1CN([C@@H](C)CO)C(=O)c2cc(-c3cccnc3)cnc2O[C@@H]1CN(C)C(=O)Nc1ccc2c(c1)OCO2,inactive
2,O=C(NCc1ccccc1)[C@@H]1c2ccccc2C(=O)N(CC23CC4CC(CC(C4)C2)C3)[C@H]1c1ccc(CO)cc1,inactive
3,COc1ccc(NC(=O)N(C)C[C@@H]2OCCCC[C@@H](C)Oc3ccc(NC(=O)Nc4ccc(C(F)(F)F)cc4)cc3C(=O)N([C@@H](C)CO)C[C@@H]2C)cc1,inactive
4,O=C1NC(=O)[C@H](Cc2ccccc2)N1,inactive
5,O=C(CCCCCNC(=O)OCc1ccc(CO[C@H]2C[C@@H](c3csc4ccccc34)C=C(C(=O)N3CCN(Cc4ccc5c(c4)OCO5)CC3)O2)cc1)NO,inactive
6,C[C@H](CO)N1C[C@H](C)[C@H](CN(C)Cc2ccc(Cl)c(Cl)c2)Oc2c(NC(=O)CCCCCC(=O)Nc3ccccc3N)cccc2C1=O,inactive
7,C[C@@H]1CN([C@H](C)CO)C(=O)c2cccc(NS(C)(=O)=O)c2O[C@@H]1CN(C)C(=O)Nc1ccc2c(c1)OCO2,inactive
8,CO[C@@H]1[C@H](O)[C@@H](CO)O[C@H]1n1cc(C)c(N)nc1=O,inactive
9,COc1cc(CC=Cc2ccccc2)c(OC)cc1O,inactive
10,CC(C)NC(=O)Nc1ccc2c(c1)C(=O)N([C@@H](C)CO)C[C@@H](C)[C@@H](CN(C)C(=O)NC1CCCCC1)O2,inactive
11,C[C@H](CO)N1C[C@H](C)[C@H](CN(C)Cc2ccc(Cl)c(Cl)c2)Oc2c(NS(=O)(=O)c3ccccc3)cccc2C1=O,inactive
12,COC(=O)[C@@H](Cc1ccc(-n2cc(C(=O)NO)nn2)cc1)N1CC(/C=C/C2CC2)=C[C@H]1[C@H](O)Cc1ccccc1,inactive
13,C[C@H](CO)N1C[C@H](C)[C@H](CN(C)S(=O)(=O)c2ccccc2F)Oc2ncc(C#Cc3ccncc3)cc2C1=O,inactive
14,C=CCNc1ncnc2c1cnn2C,inactive
15,Cn1c(=O)c2c(nc(NCCO)n2C)n(C)c1=O,inactive
16,COCC(=O)N1C[C@H](C)[C@H](OC)CN(C)C(=O)c2cc(NC(=O)Nc3ccccc3)ccc2OC[C@@H]1C,inactive

row,SMILES,cytotoxicity call
1,C(=N\c1nc2ccccc2[nH]1)/N(c1ccccc1)c1ccccc1,inactive
2,O=c1n(-c2ccccc2)c(=O)n2n1CC(COc1ccccc1)=C1[C@@H](CCc3ccccc3)OB(O)C[C@@H]12,inactive
3,CN(C)CCCNC(=O)C[C@H]1CC[C@H]2[C@@H](COC[C@@H](O)CN2C(=O)Nc2cc(Cl)cc(Cl)c2)O1,inactive
4,C[C@@H]1CCCCO[C@H](CN(C)Cc2ccc(C(F)(F)F)cc2)[C@H](C)CN([C@@H](C)CO)C(=O)c2cc(NS(=O)(=O)c3ccc(Cl)cc3)ccc2O1,active
5,C[C@H](CO)N1C[C@H](C)[C@H](CN(C)S(=O)(=O)c2ccc(F)cc2)Oc2ccc(NC(=O)CCN3CCOCC3)cc2CC1=O,inactive
6,Cn1cnc(S(=O)(=O)N2C[C@H](O)COC[C@H]3O[C@@H](CC(=O)NC4CCC4)CC[C@@H]32)c1,inactive
7,CCCCc1nn(-c2ccccc2C(F)(F)F)c(=O)n1Cc1ccc(-c2ccccc2S(=O)(=O)NC(=O)c2sccc2C)cc1,inactive
8,C[C@H](CO)N1C[C@H](C)[C@@H](CN(C)Cc2ccccc2)OCCCC[C@H](C)Oc2ccc(NC(=O)C3CCCCC3)cc2C1=O,inactive
9,C[C@@H]1CN([C@@H](C)CO)C(=O)c2cc(NC(=O)NC3CCCCC3)ccc2O[C@@H](C)CCCCO[C@H]1CN(C)Cc1ccncc1,inactive
10,CCS(=O)(=O)Nc1ccc2c(c1)C(=O)N(C)C[C@H](OC)[C@H](C)CN(CCC(F)(F)F)[C@@H](C)CO2,inactive
11,CC1CCC2C(C)C(OC(=O)CCC(=O)O)OC3OC4(C)CCC1C32OO4 (stereo unspecified),inactive
12,C[C@@H]1CCCCO[C@@H](CN(C)C(=O)Nc2cccc3ccccc23)[C@H](C)CN([C@H](C)CO)C(=O)c2cc(NC(=O)C3CCCCC3)ccc2O1,inactive
13,C[C@@H]1CCCCO[C@H](CN(C)C(=O)Cc2ccccc2)[C@@H](C)CN([C@H](C)CO)C(=O)c2cc(NC(=O)Nc3ccc(C(F)(F)F)cc3)ccc2O1,inactive
14,C[C@H]1CCCCO[C@H](CN(C)Cc2ccc(Cl)c(Cl)c2)[C@@H](C)CN([C@@H](C)CO)C(=O)c2cc(N(C)C)ccc2O1,inactive
15,CO[C@@H]1CN(C)C(=O)c2cc(NC(=O)Nc3ccccc3F)ccc2OC[C@H](C)N(CCC(F)(F)F)C[C@H]1C,inactive
